Sequences with one replicate were seen in a single cluster, so their values are uncertain.
Tested on: ATP
Assay: switch fluorescence ratio, 500 uM ATP over buffer (Cy3 cluster intensity, sum of 5 cycles each) (fold (ratio)); higher = stronger signal-on switching upon ATP binding; sequences stand for … in TCGTCGGCAGCGTCAGATGTGTATAAGAGACAGTTTTTTTTTTTTTTTTTTTTTTTTT…TC
Conditions: aptamer strand: ATP DNA aptamer (quencher-CACCTGGGGGAGTATTGCGGAGGAAGG + anchor), 100 nM annealed; ATP concentration: 500 uM; one replicate
Summary of the method: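 After annealing to 100 nM quencher-labelled ATP aptamer, Cy3-labelled switching-strand clusters on a modified Illumina MiSeq flow-cell were imaged in selection buffer. A second image followed after 15 min with 500 uM ATP at 22 °C, and five such buffer/ATP cycles were done, each separated by NaOH stripping and re-annealing. The fluorescence ratio, averaged per switch-domain sequence, is summed target-cycle over summed buffer-cycle Cy3 intensity per cluster, with clusters outside 100-1000 RFU excluded.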
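Also: ATP exposure 15 min at 22 °C before imaging.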

| Sequence | switch fluorescence ratio |
| --- | --- |
| AAGACTCAGC | 0.993 |
| TCGCCCATTG | 1.05 |
| TCTGGAAGCA | 1.32 |
| AAGCGATCTA | 1.03 |
| CGGTGCGTGC | 0.986 |
| GATTCGATTT | 0.995 |
| GGATGCATTA | 1.04 |
| CCAGGTGAGT | 4.92 |
| GATACAAATG | 0.948 |
| CATCGGAGTT | 1 |
| ACCCATGAGC | 1.01 |
| CTCGTTCCCT | 1 |
| TGATGGACGA | 0.991 |
| TGCGGTAATC | 1.09 |
| TTGGAAGACT | 1.05 |
| AGCGTGTCTG | 1.04 |
| CTTTTTTTCT | 0.984 |
| GTTACATTAG | 1.05 |
| GCGGGGATAT | 1.03 |
| CGGTATACGA | 1.1 |
| CCACGATGGC | 1.24 |
| CGTAGACATC | 1.11 |
| CGTAGAGGT | 1.01 |

| Sequence | switch fluorescence ratio |
| --- | --- |
| ACCTTATGCA | 1.03 |
| ATAGCGTCAG | 1.03 |
| AATTTTATAT | 0.975 |
| GACCCTGTGA | 1.02 |
| GATCTACCCG | 1.02 |
| TGCGACTGTG | 1.07 |
| ATTGATGATG | 0.981 |
| TTATGTACAA | 0.956 |
| GCGTATTAGA | 1.03 |
| GAGGGGCTAT | 0.977 |
| GAGCGTCCGT | 0.953 |
| GCATGTAACG | 1.02 |
| ATTGGTTATC | 0.999 |
| GACCGTTCAC | 1.15 |
| TTGCAGCACT | 1.11 |
| TGGGTGAAAC | 1.01 |
| GTTCAAGAAT | 0.981 |
| TAAAAACTTT | 1.01 |
| GGACCCTAGA | 1.01 |
| CCACACAGCA | 1.28 |
| AGGGGCATGT | 1.01 |
| ATGTGAACTT | 1.04 |
| ATGGACCTTT | 1.04 |

| Sequence | switch fluorescence ratio |
| --- | --- |
| ATCGCTCGGT | 1 |
| CAGACGACAG | 1.07 |
| GACTGACTTG | 0.959 |
| GGGATTGTAC | 1.12 |
| AATTGCACTT | 1.06 |
| CCCCGGCTCA | 1.3 |
| CAACGTGTTT | 0.993 |
| CAGTTATAGC | 1.05 |
| AATTGATACT | 1.03 |
| CTTCCGTTGT | 1.44 |
| ACATACTTAT | 1.34 |
| AGACTGGGTA | 0.981 |
| TAGCGAGGGA | 1 |
| TATATGTGAG | 0.992 |
| CGCCCGGGGA | 1.03 |
| AAAGACAATC | 1.09 |
| GAAGTACGTG | 1.17 |
| GTCGTTCCCT | 0.958 |
| CAACGCTCGG | 1.04 |
| CACGCCCCTG | 1.08 |
| AGCCCGGCTT | 0.985 |
| ATGGGCTT | 1 |
| ATTTAGGTCT | 0.968 |

| Sequence | switch fluorescence ratio |
| --- | --- |
| CAACCACGGA | 1.13 |
| GCCTTGGGAG | 0.979 |
| TAAAGCTTCT | 1.57 |
| GTGATGAAAG | 1 |
| AAAACCAGG | 1.2 |
| TTAGGCGCTG | 0.969 |
| TATGAATTCC | 1.09 |
| CCGTTACCGT | 1.02 |
| TAGTAACGTG | 0.946 |
| AAGGTTTGGT | 0.963 |
| ATGTGACGGG | 1.01 |
| CAGGTTATTG | 1.02 |
| CTACATCAAA | 1.03 |
| CCATTTCTCA | 0.956 |
| CGCTTTTGTA | 1.04 |
| CAGAAATCAT | 1.05 |
| TAGTTTACCT | 1.08 |
| CCATCTTTAC | 1.18 |
| ACATCTTTTT | 1.02 |
| CTGCTTTATT | 1.02 |
| AGTATGCGCT | 0.953 |
| AGGGAAATCC | 1.04 |
| TCCTCAGAGT | 1.16 |

| Sequence | switch fluorescence ratio |
| --- | --- |
| ATGAAGCGTA | 0.956 |
| TGTCGAAATT | 0.998 |
| TACGTACTTA | 1.44 |
| GGCTAAATAT | 1.02 |
| GCTCCGGCTA | 2.97 |
| TCACTTGTGC | 0.983 |
| TGCGTAGTTG | 0.984 |
| TCAGTGTGCA | 1.01 |
| ACATAATTTT | 1.01 |
| AATGAGATTA | 1.01 |
| GCTTTGCTGA | 0.987 |
| TAAAGTCGCC | 0.96 |
| GCCTAGGCTC | 0.996 |
| TTTAACGTGC | 0.998 |
| CCCAGGGCGT | 1.03 |
| TAATAATAGC | 0.986 |
| TACTTGTGTC | 1.05 |
| CGACAATCGG | 1.01 |
| AATCTCATTT | 1.02 |
| CTCGCAGGTT | 1.19 |
| CCCAGAGTAG | 1.1 |
| ACATAACGTA | 1.22 |
| TGGCCAGTGG | 1.02 |

| Sequence | switch fluorescence ratio |
| --- | --- |
| CGGACGGGCC | 0.959 |
| ACCGCCCCCT | 1.39 |
| CACTGCTGG | 1.02 |
| GAGTCCCACT | 1.04 |
| GCAGCGGGAG | 1.05 |
| ACATCCAAGT | 1.05 |
| GGGACCGCCC | 1.35 |
| CGGGAGTAGC | 0.989 |
| CGTCATGTGG | 0.986 |
| GAAGTAGGCC | 1.05 |
| TCTGTAGTTC | 1.12 |
| CCACGCACAT | 1.67 |
| TGGCCGTTTG | 0.985 |
| GCTGGGGAGC | 0.968 |
| TTCGTCGTCT | 1.03 |
| AGGTGGCGGG | 0.997 |
| TAAGGTCGGA | 1.04 |
| ACGATCGTGG | 1 |
| TCTGTTCGGC | 0.949 |
| GCCCTGGGCA | 0.976 |
| CTTACGGGGG | 1.02 |
| CGCAAGTCCT | 1.49 |
| CATGTGGGCC | 1.02 |

| Sequence | switch fluorescence ratio |
| --- | --- |
| TGTGACGGG | 1.01 |
| AACGAGGTG | 1.02 |
| GTGAGAGGGA | 1.01 |
| ACGTCTGTTC | 1.02 |
| TTGGCGCATT | 1.05 |
| AATTACAT | 1.01 |
| CGGAAGGGTT | 1.02 |
| GCAGCGTTGG | 0.983 |
| GGTTGGTGA | 0.971 |
| AGTGTACCTG | 1.05 |
| CTGGGAGGA | 0.977 |
| CCAGCCAAAA | 1.18 |
| AATTTC | 1.03 |
| GATACAGGTA | 1.04 |
| AGGAAGCAGG | 1.14 |
| TTTGTTGATG | 0.987 |
| CTTTGGCGGA | 0.984 |
| ATTCCAAGCT | 1.09 |
| TATATGGTTT | 1.05 |

Source: the supplement of paper PMC10126150
